Test results as given in PubChem BioAssay AID360 (National Center for Advancing Translational Sciences (NCATS), 2006).
The whole screen tested about 48,000 compounds, of which about 550 (1.1%) were called active. Another 4% or so got no clear call; they are omitted. Rule as the data show it: active = potency below about 15 µM; inconclusive = mostly about 16 µM to 33 µM; inactive = weaker than that. Some of the results follow.

target: Lysosomal acid glucosylceramidase (Homo sapiens) (UniProt P04062); test: Glucocerebrosidase; settings: purified enzyme, resorufin glucoside fluorescence (screen aimed at inhibitors), 20 min;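 also: the screen sought inhibitors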
Summary of the method: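 Wild-type enzyme at 0.2 nM final in 50mM citric acid/KH2PO4, 10mM sodium taurocholate, 0.01% tween-20, pH 5.9, with resorufin beta-D-glucopyranoside at 30 uM final. Compounds titrated, 20 min at RT, red fluorescence read; AC50 from titration.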
Potency is read from the fitted curve at half-maximal effect.

Chain of UniProt P04062 (P04062 whole entry, looked up): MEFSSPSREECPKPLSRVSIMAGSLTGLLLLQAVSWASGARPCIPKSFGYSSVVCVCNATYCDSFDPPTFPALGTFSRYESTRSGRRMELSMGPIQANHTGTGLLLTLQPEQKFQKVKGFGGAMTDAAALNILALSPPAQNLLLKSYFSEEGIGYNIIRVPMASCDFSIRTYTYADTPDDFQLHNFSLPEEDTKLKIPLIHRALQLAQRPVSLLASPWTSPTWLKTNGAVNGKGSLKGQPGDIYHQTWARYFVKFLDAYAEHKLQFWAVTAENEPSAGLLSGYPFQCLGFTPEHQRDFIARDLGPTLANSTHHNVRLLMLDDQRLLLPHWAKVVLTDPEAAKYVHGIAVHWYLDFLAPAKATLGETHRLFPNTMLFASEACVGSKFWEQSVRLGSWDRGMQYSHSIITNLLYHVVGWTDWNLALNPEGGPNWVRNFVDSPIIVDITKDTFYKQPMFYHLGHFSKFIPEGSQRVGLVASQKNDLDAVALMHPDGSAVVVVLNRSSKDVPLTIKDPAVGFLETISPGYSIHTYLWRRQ

Potency, active:
Cc1nc(N2CCc3ccccc3C2)[nH]c(=O)c1CCC(C)C 5.28 µM

Potency, inactive:
COc1ccc(N2CC(C)Cn3c2nc2c3c(=O)[nH]c(=O)n2C)cc1 (stereo not drawn) > 76.9 µM
Cc1noc(C)c1C(=O)Nc1c(F)cc(F)cc1Br > 76.9 µM
CCOC(=O)C1CCN(C(=O)CN(c2cccc(C(F)(F)F)c2)S(C)(=O)=O)CC1 > 76.9 µM
O=C1c2ccccc2C(=O)N1CCc1nc2ccccc2c(=O)n1-c1ccccn1 > 76.9 µM
Cc1nc(SCc2nc3ccccc3[nH]2)c2oc3ccccc3c2n1 > 76.9 µM
Cc1cc(C)cc(N(CC(=O)NCc2ccco2)C(=O)CCC(=O)Nc2ccccn2)c1 > 76.9 µM
COc1ccc(N=c2oc3cc(O)ccc3cc2C(=O)NCC2CCCO2)cc1 (stereo not drawn) > 76.9 µM
Cc1ccc(OCC(=O)NCc2ccccn2)cc1 > 76.9 µM
Cc1ccc(C)n1CCN1CCN(C(=O)c2ccco2)CC1
Cc1nnc2n(Cc3ccccc3)c(=O)c3c4c(sc3n12)CCCC4 > 76.9 µM
CCCOC(=O)c1sc2nc3c(cc2c1N)C(=O)CCC3 > 76.9 µM
CC(Nc1cc(=O)n(C)c(=O)[nH]1)c1ccccc1 (stereo not drawn) > 76.9 µM
Cc1cc(C)c(C#N)c(SCC(=O)Nc2ccccc2C(N)=O)n1 > 76.9 µM
O=C(CCn1c(=O)[nH]c2ccccc2c1=O)NCCCN1CCN(c2cccc(Cl)c2)CC1 > 76.9 µM
CCOC(=O)c1csc(NC(=O)c2ccc(S(=O)(=O)N(C)C)cc2)n1 > 76.9 µM
Cc1cc(=O)oc2cc(OCC(=O)NCCCN3CCOCC3)ccc12 > 76.9 µM
O=C(CN(Cc1ccco1)S(=O)(=O)c1cccs1)Nc1ccccc1C(F)(F)F > 76.9 µM
Cc1ccc(-c2nnc(N(C)C(=O)c3ccncc3)s2)cn1 > 76.9 µM
O=C(CN1C(=O)C2CC=C(Cl)CC2C1=O)N1CCOCC1 (stereo not drawn) > 76.9 µM
CC(C)Oc1ccccc1C1CC(=O)Nc2cc3c(cc21)OCCO3 (stereo not drawn) > 76.9 µM
COc1ccc(OC)c(S(=O)(=O)N(C)CC(=O)Nc2ccccc2OC)c1 > 76.9 µM
Cn1c(NC(=O)c2cccnc2)nc2ccccc21 > 76.9 µM
CC(=O)Nc1cc2c(nc1C)nc(C)n2Cc1ccc(Br)cc1 > 76.9 µM
C/C(Sc1nnc(Cc2ccccc2)o1)=C(/O)c1ccccc1 > 76.9 µM
O=C1CC(N2CCSCC2)C(=O)N1CCc1ccccc1 (stereo not drawn) > 76.9 µM
Cn1c(=O)n(C)c2cc(/C=N/n3cnnc3)ccc21 > 76.9 µM
COC(=O)CSc1nnc(CNc2ccc(Cl)cc2)n1Cc1ccccc1 > 76.9 µM
CCOC(=O)C1C(=O)NC(N2CCOCC2)=NC1C(C)C (stereo not drawn) > 76.9 µM
CCc1ccc2nc(NC(=O)CSCc3c(C)noc3C)sc2c1 > 76.9 µM
CCC(=O)Nc1cccc(C(=O)c2ccccc2)c1 > 76.9 µM
Cc1onc(-c2ccccc2Cl)c1C(=O)Nc1cccc(-c2nc3ncccn3c2C)c1
Cc1cc(C)c2c(CC(=O)Nc3nccs3)coc2c1 > 76.9 µM
COc1ccc(CCNC(=O)c2ccc3c(c2)NC(=O)C(N2CCOCC2)S3)cc1OC (stereo not drawn) > 76.9 µM
CN=C(Nc1cc(C)nn1-c1ccccc1)c1ccccc1 > 76.9 µM
CCc1sc(NS(C)(=O)=O)nc1-c1ccccc1 > 76.9 µM
CCCC(=O)Nc1ccc(C(=O)O)cc1NC(=O)CCC > 76.9 µM
CCN(CC)CCCN1C(=O)C(O)=C(C(=O)c2cc3cccc(OC)c3o2)C1c1ccncc1 (stereo not drawn) > 76.9 µM
Cc1cccc(C)c1OCc1nnc(SCC(=O)Nc2nccs2)n1-c1ccccc1 > 76.9 µM
CCCn1nnnc1SCC(=O)NCc1ccc(OC)cc1 > 76.9 µM
CC(=O)c1ccc(N2CCN(C(=O)c3cc(C)on3)CC2)cc1 > 76.9 µM
Cc1coc(C)c1C(=O)CC1(O)C(=O)N(Cc2ccccc2)c2ccccc21 (stereo not drawn) > 76.9 µM
CC1(C)C(N(O)C(=O)Nc2ccccc2)N(c2cccc(Cl)c2)C(=O)N1O (stereo not drawn) > 76.9 µM
Cc1cccc(OCC(=O)OCC(=O)c2c(N)n(C)c(=O)n(C)c2=O)c1 > 76.9 µM
CC(C)CCNc1nc2c(c(=O)n(Cc3cccc(F)c3)c(=O)n2C)n1C > 76.9 µM
N#Cc1cn(CC(=O)N2CCCC2)c2ccccc12 > 76.9 µM
Cc1csc(NC(=O)NC2(C(F)(F)F)Oc3ccccc3O2)n1 > 76.9 µM
Cn1nc(C(=O)N2CCCC2)c2ccccc2c1=O > 76.9 µM
COc1ccc(NC(=O)COC(=O)c2ccc(N3CCCC3=O)cc2)cc1OC > 76.9 µM
CC(C)(C)c1nnc(NC(=O)C2CCN(c3ncccn3)CC2)s1 > 76.9 µM
Cc1cnc(C(=O)OCC(=O)NC(=O)NC(C)C)cn1 > 76.9 µM
CC(C)c1ccc(NC(=O)NC2CCCCC2)cc1 > 76.9 µM
COc1ccc(OC)c(C(=O)COC(=O)c2ccc(C)o2)c1 > 76.9 µM
COc1ccc(C2(CNC(=O)c3ccc(Br)o3)CCOCC2)cc1 > 76.9 µM
COC(=O)C1=C(C)N(c2ccc(Cl)c(Cl)c2)C(=O)C1 > 76.9 µM
CCOc1ccc(N2CCn3c2nc2c3c(=O)n(CCc3ccccc3)c(=O)n2C)cc1 > 76.9 µM
Cc1ccc(CS(=O)(=O)CCC(=O)NCc2ccccn2)cc1 > 76.9 µM
Cc1cc(C(=O)NCc2cccs2)c(C)o1 > 76.9 µM
CC(=O)OC1C(OC(C)=O)N(C(C)=O)C(=O)N1C(C)=O (stereo not drawn) > 76.9 µM
CCOc1ccc(Cn2c(SCCCCC#N)nc3c2c(=O)n(C)c(=O)n3C)cc1OCC > 76.9 µM
Cn1c(=O)c2c(nc(NCCNC(=O)c3ccco3)n2Cc2ccc(Cl)cc2Cl)n(C)c1=O > 76.9 µM
CC1=C(C#N)C(=O)N(C)C(C)(C)C1 > 76.9 µM
Cc1ccc(-c2nn[nH]n2)cc1 > 76.9 µM
COc1cc(OC)cc(-c2cc3nc4c(c(N5CCN(c6cnccn6)CC5)n3n2)CCCC4)c1
Cc1ccccc1-c1nc2cc(N)ccc2o1 > 76.9 µM
Clc1ccc2nc(N3CCCCC3)sc2c1 > 76.9 µM
c1ccc(-c2nnc(CN3CCCc4ccccc43)o2)cc1 > 76.9 µM
COc1ccc(Cc2nnc(SCC(=O)NCC3CCCO3)o2)cc1 (stereo not drawn) > 76.9 µM
O=C(Cn1cccc1C(=O)c1ccccc1)NCc1cccs1 > 76.9 µM
CCCc1nc2sc3ccccc3c(=O)c2c(=O)n1Cc1ccco1 > 76.9 µM
O=c1cc(CN2CCN(c3ccc(F)cc3)CC2)nc2sccn12 > 76.9 µM
CCN(CC)S(=O)(=O)c1ccc(Cl)c(C(=O)Nc2nncs2)c1 > 76.9 µM
Cc1cc(C(=O)N2CCN(C/C=C/c3ccccc3)CC2)cs1 > 76.9 µM
CCC(C)N1C(=O)c2ccccc2C1C(=O)NC1CCCCCC1 (stereo not drawn) > 76.9 µM
CCC(c1c(C)[nH]oc1=O)c1c(C)[nH]oc1=O > 76.9 µM
CC(C(=O)c1ccccc1)n1cnc2ccccc2c1=O (stereo not drawn) > 76.9 µM
Cc1nn(C)c(C)c1NC(=O)CN1CCC(O)(c2ccc3c(c2)OCO3)CC1 > 76.9 µM
CCN(CC)C(=O)N1CCC(NC(=O)c2ccccc2)CC1 > 76.9 µM
CCC(C)NC(=O)c1n[nH]c(=O)c2ccccc12 (stereo not drawn) > 76.9 µM
Cc1cc2c(s1)c1cnn(CC(=O)NCCc3ccccc3)c(=O)c1n2C > 76.9 µM
CSCCC(NC(=O)c1cc(CC(C)C)oc1C)C(=O)O (stereo not drawn) > 76.9 µM
Cc1ccc(S(=O)(=O)NCCNC(=O)c2ccccc2)cc1 > 76.9 µM
CC(=O)Cc1nsc(NC(=O)c2cc(-c3cccc(C(F)(F)F)c3)oc2C)n1 > 76.9 µM
Cc1nc(NS(=O)(=O)c2cccs2)c2c3c(sc2n1)CCC3 > 76.9 µM
CC(C)(C)n1ncc2c(=O)n(CC(=O)NCc3ccc(F)cc3)cnc21 > 76.9 µM
O=C1COc2ccc(C(=O)NCc3ccco3)cc2N1 > 76.9 µM
CCSc1cc(C2C(C#N)=C(N)OC(C)=C2C(=O)OC)c(C)o1 (stereo not drawn) > 76.9 µM
CC1CCN(CCCNC(=O)c2coc3nc4ccccc4nc23)CC1 > 76.9 µM
CC(=O)C1=C(O)C(=O)N(CCc2c[nH]c3ccccc23)C1c1ccc(O)cc1 (stereo not drawn) > 76.9 µM
CC(=O)NCC(=O)OCC(=O)Nc1ccc(C(C)=O)cc1 > 76.9 µM
O=C(NCCCC(=O)N1CCOCC1)c1cccnc1 > 76.9 µM
O=C(NC1CCCCC1)C1CCN(S(=O)(=O)N2CCOCC2)CC1 > 76.9 µM
COc1ccccc1CNC(=O)C1CC(=O)N(c2ccc(C)c(C)c2)C1 (stereo not drawn) > 76.9 µM
